Measured values published in the supplement of paper PMC9446081.
In all, about 39,000 compounds went through this assay and about 220 (0.56%) showed activity. The list shows a part of the results.
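Further: static incubation at 37 °C against the wild-type strain, values averaged over two biological replicates.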

Each molecule was assayed on Escherichia coli K-12 BW25113 (assay: relative growth (OD600 normalised to plate interquartile mean) (fraction); higher = less growth inhibition, active = 0.2 or less). Conditions: 50 µM; LB; incubation time: overnight (16-24 h).
For `COc1ccc(S(=O)(=O)N(C)C[C@@H]2OCCCC[C@H](C)Oc3ccc(NC(=O)Nc4c(C)noc4C)cc3C(=O)N([C@H](C)CO)C[C@@H]2C)cc1`, the relative growth was inactive: 0.983.
`Cc1ccc(S(=O)(=O)Nc2ccc3c(c2)C(=O)N([C@H](C)CO)C[C@H](C)[C@@H](CN(C)Cc2ccc(Cl)c(Cl)c2)OCCCC[C@@H](C)O3)cc1` was tested, and the relative growth was inactive: 1.01.
For `Cc1noc(C)c1S(=O)(=O)N(C)C[C@H]1Oc2ccc(NC(=O)Cc3ccccc3)cc2CC(=O)N([C@@H](C)CO)C[C@@H]1C`, the relative growth was inactive: 0.963.
`CN1C(=O)c2cc(NC(=O)Cc3cccs3)ccc2OC[C@@H]2O[C@H](CC(=O)NCc3ccc(-c4ccccc4)cc3)CC[C@@H]21` was tested, and the relative growth was inactive: 1.02.
`C[C@@H]1CCCCO[C@@H](CN(C)C(=O)Nc2ccc(C(F)(F)F)cc2)[C@@H](C)CN([C@H](C)CO)C(=O)c2cc(NC(=O)Nc3cccc4ccccc34)ccc2O1` was tested, and the relative growth was inactive: 1.02.
In the case of `C[C@H](CO)N1C[C@H](C)[C@H](CN(C)C(=O)Nc2ccc3c(c2)OCO3)Oc2ncc(C#CC3(O)CCCC3)cc2C1=O`, the relative growth is reported as inactive: 1.
For `C[C@@H]1CCCCO[C@H](CN(C)C(=O)Nc2ccc3c(c2)OCO3)[C@H](C)CN([C@H](C)CO)C(=O)c2cc(NC(=O)Nc3ccccc3)ccc2O1`, the relative growth was inactive: 1.02.
With `NC[C@H]1COC2(CCCCC2)O1` the relative growth was inactive: 0.995.
For `O=C(C[C@@H]1CC[C@H]2[C@@H](COC[C@H](O)CN2S(=O)(=O)c2ccccc2F)O1)NCc1ccc(Cl)c(Cl)c1`, the relative growth was inactive: 1.01.
For `O=C(NOCCO)c1cc(CN2OCCCC2=O)c(F)c(F)c1Nc1ccc(I)cc1F`, the relative growth was inactive: 1.02.
With `COC(=O)CN1C(=O)CSc2ncccc21` the relative growth was inactive: 1.01.
With `C[C@@H]1CCCCO[C@@H](CN(C)C(=O)NC2CCCCC2)[C@H](C)CN([C@@H](C)CO)C(=O)c2cc(NC(=O)C3CCCCC3)ccc2O1` the relative growth was inactive: 0.997.
`CCCN(C)C[C@H]1OCCCC[C@@H](C)Oc2ccc(NS(=O)(=O)c3cn(C)cn3)cc2C(=O)N([C@H](C)CO)C[C@H]1C` was tested, and the relative growth was inactive: 0.984.
With `CC(C)c1nc(CN(C)C(=O)NC(C(=O)NC(Cc2ccccc2)CC(O)C(Cc2ccccc2)NC(=O)OCc2cncs2)C(C)C)cs1` (centres undefined) the relative growth was inactive: 0.797.
For `C[C@@H]1CN([C@H](C)CO)C(=O)c2cc(NC(=O)NC3CCCCC3)ccc2O[C@@H]1CN(C)C(=O)Nc1ccc(C(F)(F)F)cc1`, the relative growth was inactive: 0.98.
With `C[C@H](CO)N1C[C@H](C)[C@H](CN(C)C(=O)Nc2ccc(F)cc2)Oc2ccc(NC(=O)Nc3cccc4ccccc34)cc2CC1=O` the relative growth was inactive: 1.01.
`COc1ccc2c3c([nH]c2c1)[C@H](CO)N(C[C@]13CCN(CC1)Cc1nccs1)C(=O)C1CCOCC1` was tested, and the relative growth was inactive: 0.931.
With `CCOC(=O)[C@H]1[C@@H]2C(=O)N3CCC[C@H]3[C@H](O[Si](C(C)C)(C(C)C)C(C)C)[C@H]2C=C2CCN(S(=O)(=O)c3ccc(C)cc3)C[C@H]21` the relative growth was inactive: 1.05.
In the case of `C[C@@H]1CCCCO[C@H](CN(C)CC2CCCCC2)[C@@H](C)CN([C@H](C)CO)C(=O)c2cc(NC(=O)Nc3ccccc3)ccc2O1`, the relative growth is reported as inactive: 0.973.
With `NNC(=O)[C@H]1C[C@H]2C[C@@H]1C[C@@H]2C(=O)NN` the relative growth was inactive: 1.03.
In the case of `CC(C)NC(=O)N(C)C[C@@H]1OCCCC[C@H](C)Oc2ccc(NS(=O)(=O)c3cn(C)cn3)cc2C(=O)N([C@@H](C)CO)C[C@@H]1C`, the relative growth is reported as inactive: 0.947.
`COc1cc(CN(CCc2ccccn2)C(=O)CCCCc2ccccc2)ccc1OCc1ccccc1` was tested, and the relative growth was inactive: 1.
For `C1CCN=C(NC2CCCCC2)CC1`, the relative growth was inactive: 0.983.
In the case of `Cn1cnc(S(=O)(=O)N[C@H]2CC[C@@H](CC(=O)NCC3CC3)O[C@@H]2CO)c1`, the relative growth is reported as inactive: 1.03.
`CC(=O)N1[C@@H](CO)[C@H](c2ccccc2)[C@@H]1CNC(=O)CN1CCOCC1` was tested, and the relative growth was inactive: 1.04.
In the case of `C[C@@H]1CN([C@H](C)CO)S(=O)(=O)c2ccc(C#Cc3cccnc3)cc2O[C@@H]1CN(C)C(=O)Nc1ccc2c(c1)OCO2`, the relative growth is reported as inactive: 1.01.
With `O=C(C[C@@H]1CC[C@@H]2[C@H](COC[C@H](O)CN2S(=O)(=O)c2ccccc2Cl)O1)NCCc1ccncc1` the relative growth was inactive: 1.01.
For `C[C@H](CO)N1C[C@H](C)[C@H](CN(C)C(=O)C2CCOCC2)Oc2cc(C3=CCCC3)ccc2S1(=O)=O`, the relative growth was inactive: 0.999.
With `O=S(=O)(Cc1nn[nH]n1)c1ccccc1` the relative growth was inactive: 1.03.
With `Cc1noc(C)c1NC(=O)Nc1ccc2c(c1)CC(=O)N([C@H](C)CO)C[C@@H](C)[C@@H](CN(C)Cc1ccc(Oc3ccccc3)cc1)O2` the relative growth was inactive: 0.979.
With `COc1ccc(S(=O)(=O)Nc2cccc3c2O[C@@H](CN(C)CC2CC2)[C@@H](C)CN([C@H](C)CO)C3=O)cc1` the relative growth was inactive: 1.03.
With `CN(C)CCCNC(=O)C[C@H]1C=C[C@@H](NS(=O)(=O)c2ccccc2)[C@H](CO)O1` the relative growth was inactive: 0.983.
In the case of `C[C@@H]1CN([C@@H](C)CO)C(=O)CCCn2cc(nn2)CO[C@H]1CN(C)S(=O)(=O)c1cn(C)cn1`, the relative growth is reported as inactive: 1.02.
With `O=C(C[C@@H]1CC[C@H](NC(=O)Cc2ccccn2)[C@@H](CO)O1)NCCc1ccncc1` the relative growth was inactive: 1.02.
`C[C@@H]1CN([C@H](C)CO)C(=O)Cc2cc(NC(=O)Cn3cnnn3)ccc2O[C@@H]1CN(C)Cc1ccc(C(=O)O)cc1` was tested, and the relative growth was inactive: 0.975.
`COc1cc([C@H]2OC[C@](O)(Cc3ccc(O[C@@H]4O[C@H](CO)[C@@H](O)[C@H](O)[C@H]4O)c(OC)c3)[C@@H]2CO)ccc1O` was tested, and the relative growth was inactive: 1.
`C[C@H]1CCCCO[C@H](CN(C)C(=O)Nc2ccc(F)cc2)[C@@H](C)CN([C@@H](C)CO)C(=O)c2cc(NS(=O)(=O)c3cccs3)ccc2O1` was tested, and the relative growth was inactive: 0.998.
For `C[C@H](CO)N1C[C@H](C)[C@H](CN(C)C(=O)Nc2cccc3ccccc23)Oc2ncc(C#Cc3ccc(C(F)(F)F)cc3)cc2C1=O`, the relative growth was inactive: 1.08.
In the case of `C[C@@H]1O[C@H](O[C@@H]2[C@H](Oc3c(-c4ccc(O)cc4)oc4cc(O)cc(O)c4c3=O)O[C@H](CO[C@@H]3O[C@H](C)[C@@H](O)[C@H](O)[C@@H]3O)[C@@H](O)[C@@H]2O)[C@@H](O)[C@H](O)[C@@H]1O`, the relative growth is reported as inactive: 1.02.
